Measured values reported in PubChem BioAssay AID485294 (National Center for Advancing Translational Sciences (NCATS), 2010).
Screen size: about 370,000 compounds; about 150 (0.041%) were called active. This list was built around the results that the source calls inconclusive (neither active nor inactive); the mix of calls is not that of the screen. Calls follow the shape of the dose curve; as a rule, active = well fitted inhibition curve with a large enough effect; inconclusive = small, poorly fitted or top-dose-only effect; inactive = flat fitted curve, though single readings scatter. Potencies of inconclusive entries are left out as doubtful fits.

Biological target: Beta-lactamase (Escherichia coli (strain K12)) (UniProt P00811)
Test: qHTS Inhibitors of AmpC Beta-Lactamase (assay with detergent); also: nearly all actives have a fitted effect of over 25% in size;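 as to activity change, negative = inhibition: 0% = no-compound wells and -100% = no-enzyme wells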
Details: AmpC hydrolysis of nitrocefin, absorbance 480 nm, 0.01% Triton; activity change, negative = inhibition: at 114 µM (top of the series)
Procedure, shortened: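 AmpC (5.3 nM in the dispensed reagent) in 20 mM phosphate pH 7.0 with 0.01% (detergent screen) or 0.0001% Triton X-100 was preincubated with compounds for 15 min at room temperature. Nitrocefin was then added from an 800 uM solution, and hydrolysis was followed at 480 nm.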
Potency is read from the fitted curve at half-maximal effect; tags tell the direction and shape of the fitted curve.

UniProt P00811, sequence (P00811 whole entry, looked up): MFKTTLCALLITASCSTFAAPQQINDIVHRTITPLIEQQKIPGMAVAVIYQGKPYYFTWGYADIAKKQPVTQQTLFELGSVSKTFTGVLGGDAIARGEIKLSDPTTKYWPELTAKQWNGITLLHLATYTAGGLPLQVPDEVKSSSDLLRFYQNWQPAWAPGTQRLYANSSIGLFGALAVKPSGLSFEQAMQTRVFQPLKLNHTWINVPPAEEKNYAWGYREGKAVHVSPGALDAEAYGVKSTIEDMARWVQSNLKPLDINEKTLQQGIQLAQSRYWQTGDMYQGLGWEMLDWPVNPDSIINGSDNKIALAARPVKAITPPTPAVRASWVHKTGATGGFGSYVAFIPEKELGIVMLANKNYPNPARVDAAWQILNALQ

SMILES | Potency | activity change, negative = inhibition
CCN(CCNC(=O)Cn1cc2c(n1)CCCC2)c1ccccc1 | inconclusive [inhibitor, partial curve] | 
CN1CCN(C(=O)Cn2ncc3c4ccccc4n(Cc4ccc(Cl)cc4)c3c2=O)CC1 |  | inactive: 11.6%
COc1cccc(-c2nc(CS(=O)CC(=O)NC3CCCCC3)c(C)o2)c1 (configuration not stated) | inconclusive [inhibitor, partial curve, poor fit] | 
CCCCc1ccc(NC(=O)c2c(C)noc2C)cc1 | inconclusive [inhibitor, partial curve, poor fit] | 
CS(=O)(=O)N1CCc2cc(C(=O)N3CCN(c4ccccc4F)CC3)ccc21 | inconclusive [inhibitor, single point] | 
CCNc1nc(N)c(C(=O)c2ccc(Cl)s2)s1 | inconclusive [inhibitor, full curve, poor fit] | 
COc1ccccc1CNc1nc2c(S(=O)(=O)c3ccccc3)nnn2c2ccc(Cl)cc12 |  | inactive: 3.17%
CCC(C)(C)C1CCc2[nH]nc(C(=O)NC3CCCC3)c2C1 (configuration not stated) |  | inactive: -11.2%
CC(Sc1nnc(C2CC2)n1C1CC1)C(=O)Nc1cccc(S(=O)(=O)N(C)C)c1 (configuration not stated) | inconclusive [inhibitor, full curve, poor fit] | 
C/C(=N\NC(=O)C(O)(c1ccccc1)c1ccccc1)c1ccc(C)o1 | inconclusive [inhibitor, partial curve, poor fit] | 
COc1ccc(CCNC(=O)c2cc3c(=O)oc4ccc(C)cc4c3s2)cc1OC |  | inactive: 13.7%
Cc1nc(=S)c2c([nH]1)-c1ccccc1CC21CCCCC1 |  | inactive: 5.62%
N#Cc1cc2cc3c(cc2nc1N1CCCCC1)OCCO3 |  | inactive: -4.85%
Cc1ccc(OCC(=O)N/N=C\c2ccc(C)o2)c([N+](=O)[O-])c1 | inconclusive [inhibitor, single point] | 
Cc1nc(C)c(CCNC(=O)c2ccccc2Br)s1 | inconclusive [inhibitor, full curve, poor fit] | 
CN(C)C=Nc1c(C(=O)c2ccccc2)sc2nccc(N(C)C)c12 | inconclusive [inhibitor, single point] | 
Cn1nc(-c2ccc(C(=O)N3CCN(Cc4ccccc4)CC3)cc2)c2ccccc2c1=O | inconclusive [inhibitor, full curve, poor fit] | 
O=C(COc1ccc(Br)cc1)N1CCN(Cc2c[nH]c3ccccc23)CC1 | inconclusive [inhibitor, full curve, poor fit] | 
CCc1nccn1S(=O)(=O)c1cc(OC)c(Cl)cc1OC | inconclusive [inhibitor, full curve] | 
CCN(c1ccccc1)S(=O)(=O)c1cc(NC(=O)Nc2ccccc2C#N)ccc1Cl | inconclusive [inhibitor, full curve, poor fit] | 
Cc1cc(NC(=O)CCCSc2nc(-c3ccco3)cc(C(F)(F)F)n2)n(-c2ccccc2)n1 | inconclusive [inhibitor, partial curve, poor fit] | 
CN(CC(=O)N1CCCCC1)S(=O)(=O)c1ccc(Cl)cc1 | inconclusive [inhibitor, partial curve] | 
CCCn1c(C(CO)Nc2nc(C)cs2)nc2ccccc21 (configuration not stated) |  | inactive: -17.3%

SMILES | Potency | activity change, negative = inhibition
O=C(Nc1cccc(C(F)(F)F)c1)c1cc(-c2ccco2)on1 |  | inactive: -10.6%
COc1ccc(C(CC(=O)NCc2ccccc2Cl)N2Cc3ccccc3C2=O)cc1OC (configuration not stated) |  | inactive: 5.76%
O=C1/C(=C\c2ccncc2)SC(=S)N1C1CCCCC1 |  | inactive: -3.82%
O=C(CCCN1CCC(C(=O)c2ccc(F)cc2)CC1)c1ccc(F)cc1 | inconclusive [inhibitor, full curve, poor fit] | 
CCCCN1C(=O)/C(=C2/C=CC=CN2C)SC1=S | inconclusive [inhibitor, full curve, poor fit] | 
O=C(NC1CC1)c1cccc(S(=O)(=O)N2CCOCC2)c1 | inconclusive [inhibitor, full curve, poor fit] | 
O=C(Nc1ccccc1)c1ccc(S(=O)(=O)N2CCCC2)cc1 | inconclusive [inhibitor, partial curve, poor fit] | 
Cc1ccc(C(=O)N2CCN(c3ccccc3)CC2)cc1C | inconclusive [inhibitor, full curve, poor fit] | 
Cc1ccc(C(=O)O/N=C(\c2ccccc2)c2cccnc2)cc1 | inconclusive [inhibitor, partial curve] | 
CCN1CCN(CCCNC(=O)c2ccc3c(Cl)c4c(nc3c2)CCCC4)CC1 | inconclusive [inhibitor, full curve] | 
CC(NC(=O)Cc1ccccc1[N+](=O)[O-])c1ccccc1 (configuration not stated) | inconclusive [inhibitor, single point] | 
CSc1nnc2ccc(-c3cccs3)nn12 | inconclusive [inhibitor, partial curve, poor fit] | 
CC(C)(C)C(=O)Nc1sc2c(c1C#N)CCC2 |  | inactive: 1.26%
COCCn1c(C23CC4CC(CC(C4)C2)C3)n[nH]c1=S |  | inactive: -2.2%
C=CCN(CC=C)c1cnn(-c2nc3ccccc3[nH]2)c(=O)c1Cl |  | inactive: -0.0784%
COc1ccc(C(C)=O)cc1COc1cccc2cccnc12 | inconclusive [inhibitor, full curve, poor fit] | 
CC1CCCC(C)N1C(=O)COC(=O)c1cc(S(=O)(=O)N2CCOCC2)ccc1Cl (configuration not stated) | inconclusive [inhibitor, full curve, poor fit] | 
COC(=O)N1[C@H](Cc2ccccc2)C=C[C@]1(C)C(=O)NCc1ccccn1 | inconclusive [inhibitor, partial curve, poor fit] | 
O=C(c1cccc(S(=O)(=O)Nc2ccccc2Cl)c1)N1CCC1 | inconclusive [inhibitor, single point] | 
O=C(COc1ccccc1)NCc1nnc2c3ccccc3c(-c3ccccc3)nn12 | inconclusive [inhibitor, full curve] | 
CCCCC(CC)C(=O)NCCCN1CCN(CCCNC(=O)C(CC)CCCC)CC1 (configuration not stated) |  | inactive: -0.497%
Cc1cccc(N2CCN(C(=O)CC(NC(=O)c3ccccc3)c3ccccc3)CC2C)c1 (configuration not stated) | inconclusive [inhibitor, single point] | 
CCCN(CC(=O)Nc1ccccc1C)C(=O)c1cccc(S(=O)(=O)N2CCN(c3ccccc3)CC2)c1 | inconclusive [inhibitor, full curve, poor fit] | 

SMILES | Potency | activity change, negative = inhibition
O=c1c(/C=N/OCc2ccc(Cl)cc2Cl)c[nH]n1-c1cccc(Cl)n1 | inconclusive [inhibitor, full curve] | 
CC[C@H](C)C(N)c1cn([C@@H](CC(N)=O)C(=O)N2CCNCC2)nn1 (some centres not stated) | inconclusive [inhibitor, single point] | 
O=C(Cn1ncc2ccsc2c1=O)N1CCN(c2ccccc2F)CC1 |  | inactive: 17.1%
O=C(COC(=O)c1cccc(S(=O)(=O)N2CCCC2)c1)Nc1ccccc1C(F)(F)F | inconclusive [inhibitor, full curve] | 
O=C(Cn1c(CO)nc2ccccc21)Nc1cc(C(F)(F)F)ccc1N1CCOCC1 | inconclusive [inhibitor, full curve, poor fit] | 
O=S(=O)(c1ccc(SCCO)nc1)N1CCCC1 | inconclusive [inhibitor, full curve] | 
COc1ccccc1CNC(=O)C1(NC(=O)Nc2ccc(C)cc2)CCCCC1 | inconclusive [inhibitor, full curve, poor fit] | 
COc1cccc(CNS(=O)(=O)c2cc(CN3C(=O)c4cccnc4C3=O)ccc2OC)c1 |  | inactive: -1.79%
COc1ccc(CNC(=O)C2CCC(CNc3c(N4CCOCC4)c(=O)c3=O)CC2)cc1 (configuration not stated) | inconclusive [inhibitor, partial curve, poor fit] | 
O=C(NNC(=S)Nc1ccccc1)c1cccnc1 |  | inactive: 1.14%
CCOC(=O)N1CCN(S(=O)(=O)c2ccc(C(=O)NNc3nc4ccc(Cl)cc4s3)cc2)CC1 | inconclusive [inhibitor, full curve] | 
N#Cc1c(SCC(=O)Nc2cccc(C(F)(F)F)c2)sc2c(O)cc(=O)[nH]c12 | inconclusive [inhibitor, full curve, poor fit] | 
N#CCCC(CCC#N)C1=NCCc2ccccc21 |  | inactive: -7.04%
CCOc1ccc2nc(NC(=O)CCC(=O)c3cccs3)sc2c1 |  | inactive: -1.97%
Cc1ccc(C2=Nc3ccccc3N=C(C(Cl)Cl)C2)cc1 | inconclusive [inhibitor, single point] | 
CC1CCC(NC(=O)c2cc3c(s2)CCCC3)CC1 (configuration not stated) | inconclusive [inhibitor, full curve, poor fit] | 
CCc1cccc(C)c1NC(=O)CN1CCCN(Cc2ccccc2Cl)S1(=O)=O |  | inactive: -5.96%
CCOc1ccc(NS(=O)(=O)c2ccc(NC(=O)c3cccnc3)c(OC)c2)cc1 | inconclusive [inhibitor, full curve, poor fit] | 
CN(Cc1ccccc1)C(=O)CCC(=O)N(C)Cc1ccccc1 | inconclusive [inhibitor, partial curve, poor fit] | 
CCOC(=O)c1c(C)[nH]c(C)c1S(=O)(=O)NCC(=O)N1CCN(c2ccccc2OC)CC1 |  | inactive: 2.78%
O=c1cc(/N=C/c2coc3c(ccc4ccccc43)c2=O)[nH]c(=S)[nH]1 | inconclusive [inhibitor, full curve] | 
